From the RNAGym collection of RNA variant scans (doi:10.7554/elife.90254)
The source gives no read counts; variants with many changes may rest on few reads.

B1: LINE1-mini (parent)
chain: GGCAGAGCUCAACACAGCGUGGCAAAGUGGCUGUGGCUAGACUGCC

Variants of: B1
Experiment: self-cleavage, relative activity (ratio to wild type); higher = more cleavage; in vitro, sequencing; the parent is a self-cleaving ribozyme
Work on A24G G30U C31U yielded a self-cleavage of 0.03.
Variant C8A A24C G29U C42G has a self-cleavage of 0.07.
G1C G22C C23A U28A showed a self-cleavage of 0.3.
With A24C U28G U34C A41G C45A the self-cleavage was 0.03.
Work on U9A A12C G36A C37U yielded a self-cleavage of 0.07.
In the case of A11C C15G G29C, the self-cleavage is reported as 0.03.
Variant U9C C13U C15U C46U has a self-cleavage of 0.03.
For G5A U20A A26U, the self-cleavage was 0.22.
For C3A A14G C23A A41U, the self-cleavage was 0.14.
For G2A G17U G44A, the self-cleavage was 0.31.
C3U U9A C31A showed a self-cleavage of 0.1.
With G5A C23A A25C C31G the self-cleavage was 0.04.
Work on A26C C42A C45U yielded a self-cleavage of 0.22.
Variant G2C G7U C15A U20C G30U G35A has a self-cleavage of 0.03.
Work on C15G G17U C18G yielded a self-cleavage of 0.09.
G19C G30A U43A gave a self-cleavage of 0.06.
In the case of G7C C10A A11C C15G, the self-cleavage is reported as 0.01.
With C3U A39U G40U the self-cleavage was 0.05.
A12G A14U C23A A25U showed a self-cleavage of 0.01.
In the case of C8G A12U A41G C45A, the self-cleavage is reported as 0.11.
In the case of G22U C42U U43G, the self-cleavage is reported as 0.06.
Variant A24U U28G G33U has a self-cleavage of 0.03.
U28C G33A G44A showed a self-cleavage of 0.05.
Work on C8U A12U G22A yielded a self-cleavage of 0.08.
For C3U A4U G7U C15A U34A, the self-cleavage was 0.08.
In the case of G5A C18U G22A C37U, the self-cleavage is reported as 0.08.
For C23G G27C C37A, the self-cleavage was 0.
In the case of G1A A12G A14C G22U A41G, the self-cleavage is reported as 0.01.
Variant G5U C8A A14U G19U has a self-cleavage of 0.44.
C10A G22U U32C C45A showed a self-cleavage of 0.
In the case of C10U U20C A26G G35C G36C, the self-cleavage is reported as 0.03.
G7A C8A A11U C37G gave a self-cleavage of 0.
A6C C8G A14C C37A showed a self-cleavage of 0.1.
Variant A4C C23A C45U has a self-cleavage of 0.42.
C13G G27A C31G G36U gave a self-cleavage of 0.05.
With C3G U20C G36U the self-cleavage was 0.25.
Variant C13U G22U C23A G33C has a self-cleavage of 0.03.
G19A G40A U43G showed a self-cleavage of 0.02.
With C10A C18U G33U the self-cleavage was 0.02.
In the case of U9G C23A G29U, the self-cleavage is reported as 0.05.
C8G G19C G35A gave a self-cleavage of 0.17.
With G2U A11U C18A G29A G30C G33U the self-cleavage was 0.
Work on G7U U20A G33A G35U C46A yielded a self-cleavage of 0.08.
For G7U A12C G27A G29U, the self-cleavage was 0.01.
For A14U C15G U28C, the self-cleavage was 0.02.
With C3A C10G C18A G30C G36C U38G A41C the self-cleavage was 0.01.
Variant G2A G7A G17U C46G has a self-cleavage of 0.26.
Variant C8A A24U C31A has a self-cleavage of 0.07.
For C8U C10G C13U C23A G29A C42A, the self-cleavage was 0.01.
G5A U34G C45G gave a self-cleavage of 0.06.
G2U A12C U32G gave a self-cleavage of 0.
In the case of A14G U38A G44C, the self-cleavage is reported as 0.
C10U G21U C37G gave a self-cleavage of 0.01.
In the case of A6U G40U G44C, the self-cleavage is reported as 0.86.
Work on G7C A26G G29U G44U yielded a self-cleavage of 0.43.
With A12G C18A C42U the self-cleavage was 0.04.
Work on G2A A4G C13G G40U C46U yielded a self-cleavage of 0.08.
In the case of A4C U20G C46A, the self-cleavage is reported as 0.1.
Work on G17C G29U U32C yielded a self-cleavage of 0.04.
For A6C U9A U20C A25U G33U, the self-cleavage was 0.1.
Work on G7U C8A G22U G36U yielded a self-cleavage of 0.43.
With G2A C8A U20A C45A the self-cleavage was 0.42.
Work on G22U C31A U38G yielded a self-cleavage of 0.01.
In the case of G7U A11U U20G, the self-cleavage is reported as 0.02.
With G7A G22C A26U the self-cleavage was 0.3.
With G1A G22A C31U C42A the self-cleavage was 0.05.
Work on A14U G21U U28C yielded a self-cleavage of 0.75.
With A14G C18G U20G the self-cleavage was 0.02.
Variant A11U G29U G36C has a self-cleavage of 0.02.
In the case of G2U C8A C42G, the self-cleavage is reported as 0.05.
C10G C18U A25G showed a self-cleavage of 0.08.
For G2A A16C G19U G22U, the self-cleavage was 0.03.
With G1U G5A G17C G19U G29U the self-cleavage was 0.08.
Variant G5C C15A A24C G40C has a self-cleavage of 0.02.
G1U G21C G33U gave a self-cleavage of 0.07.
Variant A6C G7U C8U C13G C18G G44A has a self-cleavage of 0.28.
In the case of C18G G22C C23A A25G G44U C46U, the self-cleavage is reported as 0.04.
For C3G A6G G33U U38A C45G, the self-cleavage was 0.09.
Variant G7C U9C A16U G17A G33C has a self-cleavage of 0.
Work on C10U A11U G30A C31U C46A yielded a self-cleavage of 0.01.
G2A C3A C10A C37A gave a self-cleavage of 0.04.
U9A A14U C15U G29U showed a self-cleavage of 0.09.
A6C G27A G36U A39C showed a self-cleavage of 0.05.
C18G C31U U32A showed a self-cleavage of 0.02.
With C18A U32A U43G C45A the self-cleavage was 0.02.
In the case of A14C A16U G29C C45A, the self-cleavage is reported as 0.04.
In the case of C3U C18U C45U, the self-cleavage is reported as 0.07.
In the case of C8G C10G A39G, the self-cleavage is reported as 0.02.
For C10A G33C G40C, the self-cleavage was 0.02.
Work on C8U C13G G35A yielded a self-cleavage of 0.31.
In the case of U9A C10G C18A U34G, the self-cleavage is reported as 0.03.
For G1U G2U C10A G21U A26C, the self-cleavage was 0.01.
Work on C18A G21U U28G A39G yielded a self-cleavage of 0.02.
C3G U9A G30A gave a self-cleavage of 0.3.
A4U G17A G35U showed a self-cleavage of 0.17.
Variant A4C G19A G30U has a self-cleavage of 0.74.
With A6U G19A G21C the self-cleavage was 0.4.
With G1A G30C G36C the self-cleavage was 0.06.
For C3A G17C G19U G40A C42A, the self-cleavage was 0.05.
Variant A12G G17A C23U G33A has a self-cleavage of 0.09.
A6C A26G U28G C37U gave a self-cleavage of 0.02.
Variant G5U A11G A24U C31A has a self-cleavage of 0.01.
G7C C8U G19A showed a self-cleavage of 0.13.
G2U U9G C13U G33U showed a self-cleavage of 0.02.
In the case of G7C C10U G21U G22C C31G G33C U34G, the self-cleavage is reported as 0.03.
G7C C8U U9A C23U G33A showed a self-cleavage of 0.11.
With C10G C13U C31A C46A the self-cleavage was 0.03.
C23G C37U C45G showed a self-cleavage of 0.01.
With G2C A12U A26U the self-cleavage was 0.04.
For G2C G7A A11U A16U G35C G36C, the self-cleavage was 0.
In the case of U9G C10A U20A G35C, the self-cleavage is reported as 0.01.
C3G C10A C13U G19C C23U A39U gave a self-cleavage of 0.01.
Work on G1C G30U U34G G35U C46G yielded a self-cleavage of 0.02.
A12C C13A C15G G17A A26G U32A A39C gave a self-cleavage of 0.07.
In the case of G5C C10U U38C C45A, the self-cleavage is reported as 0.
Variant A14G U32G G33U C45U has a self-cleavage of 0.
In the case of G2A C3U C10A G19C U38A, the self-cleavage is reported as 0.03.
For G1C G17U C23A U28G G35A, the self-cleavage was 0.
Variant A12C C13G A25G G29A A41U has a self-cleavage of 0.
In the case of A24C U28C A41G, the self-cleavage is reported as 0.06.
In the case of C10A G29U G35C, the self-cleavage is reported as 0.01.
G17C U32G C37G gave a self-cleavage of 0.02.
For G1C G33C C42U, the self-cleavage was 0.01.
C10U C13U A39G gave a self-cleavage of 0.17.
Variant C18U G30A C37A has a self-cleavage of 0.1.
G5C G7U C23U G35A showed a self-cleavage of 0.74.
G2C A12C G35U showed a self-cleavage of 0.04.
In the case of C18G U34C A39U, the self-cleavage is reported as 0.03.
In the case of G7U U28G C42A, the self-cleavage is reported as 0.02.
G35U U38G A41G U43C showed a self-cleavage of 0.
For G2C G27A A41U, the self-cleavage was 0.24.
Work on G1A G29A G30C G36A yielded a self-cleavage of 0.27.
For A6U G7C C8G A11G G29C, the self-cleavage was 0.02.
In the case of G30C G36C G44C, the self-cleavage is reported as 0.01.
Variant A16U G22U G33C C37U G40U has a self-cleavage of 0.02.
Work on A6U C13G G29C G33C yielded a self-cleavage of 0.08.
Variant C8A U9G G22C A24U has a self-cleavage of 0.07.
With A11U A12G G33A the self-cleavage was 0.02.
For C3A C18U C46A, the self-cleavage was 0.07.
With U9C G36U G44U the self-cleavage was 0.01.
Work on A12G A14C C18G yielded a self-cleavage of 0.01.
C10G C15U G40C C46U gave a self-cleavage of 0.05.
For G1A C15U A24G U28G, the self-cleavage was 0.52.
Variant C3U A4G A12U G44U has a self-cleavage of 0.05.
With U20G G30C C37U the self-cleavage was 0.09.
G1U G21C G35U G40U gave a self-cleavage of 0.07.
A6C A12C C15U G36U C42A showed a self-cleavage of 0.01.
In the case of C8A A11U A12U, the self-cleavage is reported as 0.01.
Work on C3G C8U C31A G40U yielded a self-cleavage of 0.08.
G5A A41U C42A gave a self-cleavage of 0.06.
For G2U A11C G27C U34C G35U G36U, the self-cleavage was 0.
Work on A4U A12C C13U G22U U34C U38C yielded a self-cleavage of 0.02.
In the case of G30A G33U G40A, the self-cleavage is reported as 0.02.
With G7U G19C G21A the self-cleavage was 0.03.
Work on C18G G36U C42A yielded a self-cleavage of 0.04.
U9C G21C G22A G29C U34G G35A showed a self-cleavage of 0.01.
Variant G2U A11C G22U A24C C42A C45A has a self-cleavage of 0.
For A16G C18U G30U, the self-cleavage was 0.03.
For G17A C31U G35A U38A G40A, the self-cleavage was 0.01.
Variant G2A A6G G21C A24G G29A G30A has a self-cleavage of 0.07.
With G5C G17A C18G U32G G33C the self-cleavage was 0.07.
In the case of U34G G35A C46U, the self-cleavage is reported as 0.05.
Variant C10A G27U U34A has a self-cleavage of 0.56.
For G17U A24U C45G, the self-cleavage was 0.12.
For C8G G17A G30U A41C, the self-cleavage was 0.05.
Work on U9A A12U G22C C23G A24U G29A C42U yielded a self-cleavage of 0.05.
Work on C10U A16U G29U yielded a self-cleavage of 0.52.
